{"source": "the supplement of paper PMC12217912", "parents": {"B1": {"name": "TEV protease; numbered along this chain (parent)", "chain": "MGESLFKGPRDYNPISSSICHLTNESDGHTTSLYGIGFGPFIITNKHLFRRNNGTLVVQSLHGVFKVKDTTTLQQHLVDGRDMIIIRMPKDFPPFPQKLKFREPQREERICLVTTNFQTKSMSSMVSDTSCTFPSGDGIFWKHWIQTKDGQCGSPLVSTRDGFIVGIHSASNFTNTNNYFTSVPKNFMELLTNQEAQQWVSGWRLNADSVLWGGHKVFMVKPEEPFQPVKEATQL"}}, "variants_of": "B1", "test": "raw area under fraction-flipped curve 0-4 h after induction (AUC4h, not background-subtracted), DNA-recorder readout of cleavage of the substrate (dimensionless); higher = more cleavage of the substrate by the protease variant", "settings": "temperature: 34 °C; time window: 0-4 h after rhamnose induction", "protocol": "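In vivo DNA recorder in E. coli TOP10(DE3) ΔrhaA at 34 °C. Each TEVp single-site mutant (parent TEVp 0) is paired with a single-site variant of the 7-mer TEVs (canonical ENLYFQ|S). The substrate sits between flexible linkers in a Bxb1-sfGFP-TEVs-SsrA fusion, so cleavage stabilises Bxb1 and speeds flipping of a recombination array, read by NGS. The value is the raw area under the fraction-flipped curve over 0-4 h after rhamnose induction (AUC4h), with ≥20 reads per time point. It is not background-subtracted; inactive controls average about 0.047.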", "note": "The list shows a part of the results. The full chains were built here from the parent and the listed change. Inactive controls read about 0.05.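 Also: Bxb1 expression induced with 0.2% (w/v) L-rhamnose at OD600 near 0.5, cultures sampled hourly, flipped fraction per protease–substrate barcode pair counted by paired-end Illumina sequencing.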", "data": [{"variant": "MGESLFKGPRDYNPISSSICHLTNESDGHTTSLYGIGFGPFIITNKHLFRRNNGTLVVQSLHGVFKVKDTTTLQQHLVDGRDMIIIRMPFDFPPFPQKLKFREPQREERICLVTTNFQTKSMSSMVSDTSCTFPSGDGIFWKHWIQTKDGQCGSPLVSTRDGFIVGIHSASNFTNTNNYFTSVPKNFMELLTNQEAQQWVSGWRLNADSVLWGGHKVFMVKPEEPFQPVKEATQL", "note": "[K90F]", "values": [{"measurement": "area with substrate ENAYFQS", "value": 0.0559}, {"measurement": "area with substrate ENCYFQS", "value": 0.0477}, {"measurement": "area with substrate ENDYFQS", "value": 0.0542}, {"measurement": "area with substrate ENEYFQS", "value": 0.0614}, {"measurement": "area with substrate ENFYFQS", "value": 0.0541}, {"measurement": "area with substrate ENKYFQS", "value": 0.0544}, {"measurement": "area with substrate ENMYFQS", "value": 0.077}, {"measurement": "area with substrate ENNYFQS", "value": 0.0559}, {"measurement": "area with substrate ENQYFQS", "value": 0.0581}, {"measurement": "area with substrate ENSYFQS", "value": 0.0507}, {"measurement": "area with substrate ENTYFQS", "value": 0.0614}, {"measurement": "area with substrate ENVYFQS", "value": 0.0872}]}, {"variant": "MGESLFKGPRDYNPISSSICHLTNESDGHTTSLYGIGFGPFIITNKHLFRRNNGTLVVQSLHGVFKVKDTTTLQQHLVDGRDMIIIRMPIDFPPFPQKLKFREPQREERICLVTTNFQTKSMSSMVSDTSCTFPSGDGIFWKHWIQTKDGQCGSPLVSTRDGFIVGIHSASNFTNTNNYFTSVPKNFMELLTNQEAQQWVSGWRLNADSVLWGGHKVFMVKPEEPFQPVKEATQL", "note": "[K90I]", "values": [{"measurement": "area with substrate ENAYFQS", "value": 0.0671}, {"measurement": "area with substrate ENCYFQS", "value": 0.0716}, {"measurement": "area with substrate ENDYFQS", "value": 0.0536}, {"measurement": "area with substrate ENEYFQS", "value": 0.0572}, {"measurement": "area with substrate ENFYFQS", "value": 0.0549}, {"measurement": "area with substrate ENGYFQS", "value": 0.0501}, {"measurement": "area with substrate ENHYFQS", "value": 0.0567}, {"measurement": "area with substrate ENIYFQS", "value": 0.116}, {"measurement": "area with substrate ENKYFQS", "value": 0.072}, {"measurement": "area with substrate ENMYFQS", "value": 0.0765}, {"measurement": "area with substrate ENNYFQS", "value": 0.0629}, {"measurement": "area with substrate ENPYFQS", "value": 0.0636}, {"measurement": "area with substrate ENQYFQS", "value": 0.0539}, {"measurement": "area with substrate ENRYFQS", "value": 0.0456}, {"measurement": "area with substrate ENSYFQS", "value": 0.0514}, {"measurement": "area with substrate ENVYFQS", "value": 0.0829}, {"measurement": "area with substrate ENWYFQS", "value": 0.0666}]}, {"variant": "MGESLFKGPRDYNPISSSICHLTNESDGHTTSLYGIGFGPFIITNKHLFRRNNGTLVVQSLHGVFKVKDTTTLQQHLVDGRDMIIIRMPKDTPPFPQKLKFREPQREERICLVTTNFQTKSMSSMVSDTSCTFPSGDGIFWKHWIQTKDGQCGSPLVSTRDGFIVGIHSASNFTNTNNYFTSVPKNFMELLTNQEAQQWVSGWRLNADSVLWGGHKVFMVKPEEPFQPVKEATQL", "note": "[F92T]", "values": [{"measurement": "area with substrate ENAYFQS", "value": 0.0686}, {"measurement": "area with substrate ENCYFQS", "value": 0.0796}, {"measurement": "area with substrate ENEYFQS", "value": 0.0783}, {"measurement": "area with substrate ENFYFQS", "value": 0.0649}, {"measurement": "area with substrate ENMYFQS", "value": 0.0764}, {"measurement": "area with substrate ENNYFQS", "value": 0.0774}, {"measurement": "area with substrate ENPYFQS", "value": 0.0396}, {"measurement": "area with substrate ENSYFQS", "value": 0.0502}, {"measurement": "area with substrate ENVYFQS", "value": 0.0802}]}, {"variant": "MGESLFKGPRDYNPISSSICHLTNESDGHTTSLYGIGFGPFIITNKHLFRRNNGTLVVQSLHGVFKVKDTTTLQQHLVDGRDMIIIRMPKDFPDFPQKLKFREPQREERICLVTTNFQTKSMSSMVSDTSCTFPSGDGIFWKHWIQTKDGQCGSPLVSTRDGFIVGIHSASNFTNTNNYFTSVPKNFMELLTNQEAQQWVSGWRLNADSVLWGGHKVFMVKPEEPFQPVKEATQL", "note": "[P94D]", "values": [{"measurement": "area with substrate ENAYFQS", "value": 0.0653}, {"measurement": "area with substrate ENCYFQS", "value": 0.0621}, {"measurement": "area with substrate ENDYFQS", "value": 0.0638}, {"measurement": "area with substrate ENEYFQS", "value": 0.0499}, {"measurement": "area with substrate ENGYFQS", "value": 0.0461}, {"measurement": "area with substrate ENHYFQS", "value": 0.0458}, {"measurement": "area with substrate ENKYFQS", "value": 0.0458}, {"measurement": "area with substrate ENQYFQS", "value": 0.055}, {"measurement": "area with substrate ENVYFQS", "value": 0.0969}]}, {"variant": "MGESLFKGPRDYNPISSSICHLTNESDGHTTSLYGIGFGPFIITNKHLFRRNNGTLVVQSLHGVFKVKDTTTLQQHLVDGRDMIIIRMPKDFPEFPQKLKFREPQREERICLVTTNFQTKSMSSMVSDTSCTFPSGDGIFWKHWIQTKDGQCGSPLVSTRDGFIVGIHSASNFTNTNNYFTSVPKNFMELLTNQEAQQWVSGWRLNADSVLWGGHKVFMVKPEEPFQPVKEATQL", "note": "[P94E]", "values": [{"measurement": "area with substrate ENAYFQS", "value": 0.0615}, {"measurement": "area with substrate ENCYFQS", "value": 0.0764}, {"measurement": "area with substrate ENEYFQS", "value": 0.0507}, {"measurement": "area with substrate ENGYFQS", "value": 0.0563}, {"measurement": "area with substrate ENIYFQS", "value": 0.0962}, {"measurement": "area with substrate ENMYFQS", "value": 0.0885}, {"measurement": "area with substrate ENNYFQS", "value": 0.0665}, {"measurement": "area with substrate ENPYFQS", "value": 0.0555}, {"measurement": "area with substrate ENQYFQS", "value": 0.0091}, {"measurement": "area with substrate ENSYFQS", "value": 0.0579}, {"measurement": "area with substrate ENTYFQS", "value": 0.0755}, {"measurement": "area with substrate ENVYFQS", "value": 0.0791}, {"measurement": "area with substrate ENWYFQS", "value": 0.0565}, {"measurement": "area with substrate ENYYFQS", "value": 0.0463}]}, {"variant": "MGESLFKGPRDYNPISSSICHLTNESDGHTTSLYGIGFGPFIITNKHLFRRNNGTLVVQSLHGVFKVKDTTTLQQHLVDGRDMIIIRMPKDFPQFPQKLKFREPQREERICLVTTNFQTKSMSSMVSDTSCTFPSGDGIFWKHWIQTKDGQCGSPLVSTRDGFIVGIHSASNFTNTNNYFTSVPKNFMELLTNQEAQQWVSGWRLNADSVLWGGHKVFMVKPEEPFQPVKEATQL", "note": "[P94Q]", "values": [{"measurement": "area with substrate ENAYFQS", "value": 0.0692}, {"measurement": "area with substrate ENDYFQS", "value": 0.0651}, {"measurement": "area with substrate ENEYFQS", "value": 0.0629}, {"measurement": "area with substrate ENGYFQS", "value": 0.0717}, {"measurement": "area with substrate ENHYFQS", "value": 0.0509}, {"measurement": "area with substrate ENMYFQS", "value": 0.0741}, {"measurement": "area with substrate ENNYFQS", "value": 0.0623}, {"measurement": "area with substrate ENPYFQS", "value": 0.0485}, {"measurement": "area with substrate ENQYFQS", "value": 0.0601}, {"measurement": "area with substrate ENRYFQS", "value": 0.0632}, {"measurement": "area with substrate ENSYFQS", "value": 0.0615}, {"measurement": "area with substrate ENVYFQS", "value": 0.0711}, {"measurement": "area with substrate ENWYFQS", "value": 0.0477}, {"measurement": "area with substrate ENYYFQS", "value": 0.0401}]}, {"variant": "MGESLFKGPRDYNPISSSICHLTNESDGHTTSLYGIGFGPFIITNKHLFRRNNGTLVVQSLHGVFKVKDTTTLQQHLVDGRDMIIIRMPKDFPYFPQKLKFREPQREERICLVTTNFQTKSMSSMVSDTSCTFPSGDGIFWKHWIQTKDGQCGSPLVSTRDGFIVGIHSASNFTNTNNYFTSVPKNFMELLTNQEAQQWVSGWRLNADSVLWGGHKVFMVKPEEPFQPVKEATQL", "note": "[P94Y]", "values": [{"measurement": "area with substrate ENAYFQS", "value": 0.0553}, {"measurement": "area with substrate ENDYFQS", "value": 0.0668}, {"measurement": "area with substrate ENEYFQS", "value": 0.0603}, {"measurement": "area with substrate ENFYFQS", "value": 0.0664}, {"measurement": "area with substrate ENKYFQS", "value": 0.0666}, {"measurement": "area with substrate ENMYFQS", "value": 0.0875}, {"measurement": "area with substrate ENNYFQS", "value": 0.0523}, {"measurement": "area with substrate ENPYFQS", "value": 0.0344}, {"measurement": "area with substrate ENQYFQS", "value": 0.0524}, {"measurement": "area with substrate ENSYFQS", "value": 0.13}, {"measurement": "area with substrate ENTYFQS", "value": 0.0593}, {"measurement": "area with substrate ENYYFQS", "value": 0.0476}]}, {"variant": "MGESLFKGPRDYNPISSSICHLTNESDGHTTSLYGIGFGPFIITNKHLFRRNNGTLVVQSLHGVFKVKDTTTLQQHLVDGRDMIIIRMPKDFPPSPQKLKFREPQREERICLVTTNFQTKSMSSMVSDTSCTFPSGDGIFWKHWIQTKDGQCGSPLVSTRDGFIVGIHSASNFTNTNNYFTSVPKNFMELLTNQEAQQWVSGWRLNADSVLWGGHKVFMVKPEEPFQPVKEATQL", "note": "[F95S]", "values": [{"measurement": "area with substrate ENAYFQS", "value": 0.0606}, {"measurement": "area with substrate ENCYFQS", "value": 0.0597}, {"measurement": "area with substrate ENDYFQS", "value": 0.057}, {"measurement": "area with substrate ENEYFQS", "value": 0.0521}, {"measurement": "area with substrate ENFYFQS", "value": 0.047}, {"measurement": "area with substrate ENGYFQS", "value": 0.0485}, {"measurement": "area with substrate ENHYFQS", "value": 0.0582}, {"measurement": "area with substrate ENKYFQS", "value": 0.0543}, {"measurement": "area with substrate ENMYFQS", "value": 0.0658}, {"measurement": "area with substrate ENNYFQS", "value": 0.0561}, {"measurement": "area with substrate ENPYFQS", "value": 0.0517}, {"measurement": "area with substrate ENQYFQS", "value": 0.0487}, {"measurement": "area with substrate ENRYFQS", "value": 0.0421}, {"measurement": "area with substrate ENSYFQS", "value": 0.0514}, {"measurement": "area with substrate ENTYFQS", "value": 0.0529}, {"measurement": "area with substrate ENYYFQS", "value": 0.0492}]}, {"variant": "MGESLFKGPRDYNPISSSICHLTNESDGHTTSLYGIGFGPFIITNKHLFRRNNGTLVVQSLHGVFKVKDTTTLQQHLVDGRDMIIIRMPKDFPPFPQQLKFREPQREERICLVTTNFQTKSMSSMVSDTSCTFPSGDGIFWKHWIQTKDGQCGSPLVSTRDGFIVGIHSASNFTNTNNYFTSVPKNFMELLTNQEAQQWVSGWRLNADSVLWGGHKVFMVKPEEPFQPVKEATQL", "note": "[K98Q]", "values": [{"measurement": "area with substrate ENAYFQS", "value": 0.0613}, {"measurement": "area with substrate ENDYFQS", "value": 0.057}, {"measurement": "area with substrate ENFYFQS", "value": 0.0508}, {"measurement": "area with substrate ENGYFQS", "value": 0.0615}, {"measurement": "area with substrate ENMYFQS", "value": 0.0746}, {"measurement": "area with substrate ENSYFQS", "value": 0.106}, {"measurement": "area with substrate ENWYFQS", "value": 0.0274}, {"measurement": "area with substrate ENYYFQS", "value": 0.0662}]}]}
